# The supplement of paper PMC4466236
# Whole data set: some 33,000 sequences, median “E-score (dimensionless, -0.5 to 0.5)” near -0.058, cut for the highest 2% near 0.35. Some of the results follow.
# System: MvaT
# Test: PBM 8-mer E-score (mean of HK and ME arrays) (E-score (dimensionless, -0.5 to 0.5)); higher = stronger relative binding preference; most listed sequences are background and not binding sites
# In short: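 Full-length P. aeruginosa MvaT carrying an N-terminal glutathione S-transferase tag was tested by protein binding microarray following a previously described protocol. Two universal double-stranded 60-mer arrays, ME and HK, were used, each with a constant 25-mer primer region and a variable 35-mer region covering all 8-mers. The rank-based E-score is the mean of the two arrays, parsed with a custom script. Its range runs from -0.5 to 0.5 for each 8-mer.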
row,Sequence,PBM 8-mer E-score
1,TATCATAA,0.315
2,AATGACGC,-0.183
3,GACGCGCA,-0.188
4,ACTATTTC,0.201
5,ACCCCCCG,-0.213
6,GACTAGTA,0.0129
7,ATTTATTA,0.434
8,TTTGAAAA,0.213
9,AATCAGAA,0.124
10,ATCTCCAT,0.0219
11,AATTTGAG,0.13
12,GGACTGAC,-0.303
13,CACTGTCG,-0.143
14,GGCCAGCC,-0.315
15,ACAAGCTC,-0.124
16,CGAAGGAC,-0.189
17,TGGACAAA,0.0389
18,CCGTTTCG,-0.106
19,ACAGTTCG,0.115
20,AATTCGAC,-0.053
21,CGCACCGA,0.00029
22,GATATCAC,0.119
23,CGTTGCAC,-0.227
24,CCACTGAC,-0.15
25,CCAATTAG,0.073

row,Sequence,PBM 8-mer E-score
1,ATGGGACC,-0.213
2,CCAGACTA,-0.0942
3,TACATGTA,0.321
4,CCCCCCAC,-0.373
5,AGTAACAC,0.213
6,CTCGGGAA,-0.119
7,CTAGCGCA,-0.235
8,GGTGCCTA,-0.0806
9,CAATACAA,0.199
10,CACATTTC,0.159
11,CAGAGCTA,-0.148
12,AAAAGATT,0.237
13,CGCACAAG,-0.0906
14,CGGGTACG,-0.178
15,CTTAGCCA,-0.0815
16,CTCAGTGC,-0.0732
17,CAGGGAGC,-0.371
18,CATAACTA,0.286
19,GAGGAGAA,-0.239
20,ACATCCAA,0.158
21,GTCCTCCA,-0.348
22,GTTTATTA,0.407
23,AACGGACT,-0.0917
24,ACGGCACA,0.117
25,CCTAGGAG,-0.293

row,Sequence,PBM 8-mer E-score
1,ATCGGAAG,-0.0287
2,TAATAGTA,0.362
3,GGGCGGAA,-0.17
4,GGATGAAC,0.0137
5,CCGATCAA,-0.0487
6,ACCAAGCG,-0.286
7,CCCTAAAA,-0.0293
8,GTCGGCCA,-0.253
9,ACAGCCTG,-0.125
10,CGGCACAC,-0.0132
11,CATGATGG,-0.125
12,CATCGGCC,-0.211
13,CATATTGC,0.194
14,GAAGCAGC,-0.303
15,AGGTAGCC,-0.172
16,ATGCAAGC,-0.0519
17,ATTGTTGA,0.115
18,AAGTAGTG,0.168
19,ATAACACA,0.314
20,CTGGCAAC,0.0118
21,AGTCAGAA,0.0155
22,TATCTAGA,0.17
23,GGTAGCAA,-0.0509
24,AGTTAGAC,0.0898
25,ATAGATCA,0.0377

row,Sequence,PBM 8-mer E-score
1,AGAGCTAA,-0.0847
2,ACGAAGAG,-0.0503
3,ACCCAACA,-0.0628
4,CTTGATTC,-0.0843
5,CCGGATGC,-0.203
6,AAGGAGAA,-0.165
7,ATACTCTG,0.123
8,ATAGTTGA,0.259
9,CTTGAGTA,0.0587
10,ACAGAAGG,-0.153
11,CTAGTAAG,-0.181
12,ATCTAATC,0.167
13,CAGGCAGC,-0.235
14,AGATCATC,-0.117
15,ACGCTACT,-0.032
16,ATTTATAA,0.459
17,GTCGAAGA,-0.0654
18,ACGGTCCG,-0.343
19,GGGCACAA,-0.0187
20,AACAACTC,0.185
21,CGCCCTAC,-0.195
22,GCGTGTAA,-0.0288
23,CGACGTAC,-0.0495
24,CGTAGACG,-0.272
25,ACGTCGAG,-0.102

row,Sequence,PBM 8-mer E-score
1,GAACGTGC,-0.149
2,GAGAGTGC,-0.148
3,ATATGAGA,0.123
4,CCCATTAG,0.0585
5,ACTAATTG,0.308
6,GGCAAACA,-0.0281
7,CCAGATCC,-0.268
8,CGTGCAAA,0.0455
9,GTATGCAA,0.0565
10,GAATTGGC,-0.101
11,ATAAACAT,0.342
12,TAACCTAA,0.212
13,CTGAAGAA,0.0648
14,CTCACCAC,-0.026
15,ACCGTGTA,-0.0272
16,CAATCCAC,-0.103
17,TAAGCTGA,-0.0825
18,AACCGGTA,0.0271
19,TAAATTCA,0.3
20,CCACCAGA,-0.233
21,GTACATCA,-0.0193
22,ATCGAATA,0.207
23,AGCTGCCT,-0.216
24,TCATATAA,0.379
25,AGCTTTAG,-0.126

row,Sequence,PBM 8-mer E-score
1,CCTTGGGC,-0.134
2,CTCTAGAA,0.101
3,GGGAGAGA,-0.14
4,CAGTTCAG,-0.0792
5,AAAATTAC,0.149
6,ATGGCCAC,-0.162
7,TAAGAGGA,0.00738
8,ATGAAAAT,0.243
9,GTTGAAAA,0.0872
10,AAGGCGAG,-0.313
11,CCGTCTAA,0.0692
12,CTGTAAGA,-0.0539
13,AACAAACC,0.109
14,CGACTGCA,-0.158
15,AACCGACT,0.00127
16,ACAGATGC,-0.179
17,AGTGACTA,0.0906
18,TCAGTAAA,0.118
19,CCTCATAC,-0.0935
20,AGGCCATG,-0.221
21,GCAAAAAC,-0.0305
22,CTCAAGAC,-0.214
23,ACCTATAG,0.0154
24,CATCTCCC,-0.307
25,CGCCGCGA,-0.258

row,Sequence,PBM 8-mer E-score
1,GTTAACTA,0.362
2,CGTCCCAA,-0.102
3,CTCACCCC,-0.215
4,TACACCAA,0.134
5,CCACAGGA,-0.171
6,AAGAGCCC,-0.234
7,CCAAAACG,-0.114
8,ATGTCGGC,-0.0413
9,TACCAAGA,-0.0377
10,CCCCAGCA,-0.305
11,GCAGTTGA,-0.0295
12,AACTGCCC,-0.0879
13,ACAGTTTC,0.0803
14,AGGCCACT,-0.147
15,TCGCAGAA,-0.179
16,AATAGTCT,0.268
17,ATTCCCTA,0.0104
18,AAGCGCCA,-0.182
19,CCTTTTCA,-0.00742
20,CTGGCGTC,-0.306
21,CACCCGAC,-0.267
22,ACTTCAAT,0.317
